Test results reported in the supplement of paper PMC4166925.
± gives the standard deviation of the averaged measurements. Over roughly 33,000 sequences, “E-score (dimensionless, -0.5 to 0.5)” has its median near -0.046; the highest 2% begin near 0.36. Some of the results follow.

tested on: T1, SpTbr T-box DNA-binding domain (GST fusion); assay: PBM E-score of 8-mer (E-score (dimensionless, -0.5 to 0.5)); Tbr is Tbrain of the sea star Patiria miniata (Pm) or the sea urchin Strongylocentrotus purpuratus (Sp); higher = stronger binding preference; most listed sequences are background and not binding sites; details: the construct has about 5 more residues each side
T1 sequence: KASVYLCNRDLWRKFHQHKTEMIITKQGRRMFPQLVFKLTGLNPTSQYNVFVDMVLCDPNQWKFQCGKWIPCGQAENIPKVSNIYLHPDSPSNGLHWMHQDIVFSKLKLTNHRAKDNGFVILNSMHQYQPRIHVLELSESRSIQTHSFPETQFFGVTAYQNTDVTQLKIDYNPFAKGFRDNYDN
How it was run: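 Each ungapped 8-mer received an enrichment E-score from the Universal PBM Analysis Suite, averaged over duplicate arrays. The proteins were Tbr T-box DNA-binding domains, covering the whole T-box plus about five flanking residues, fused to GST and expressed in BL21 E. coli at 20 °C before glutathione affinity purification. Universal Agilent oligonucleotide arrays were made double-stranded by primer extension and incubated with 200 nM protein in PBS (pH 7.5). The arrays were then scanned and quantified, and every 8-mer was scored from probe intensities.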

Sequence	PBM E-score of 8-mer
ATGGCCCC	0.00571 ± 0.033
ACATCTGA	0.161 ± 0.014
ATATCAAT	0.0685 ± 0.019
CAGAATTA	-0.127 ± 0.015
CAGTGGCA	0.143 ± 0.018
AGGGATGA	-0.19 ± 0.015
ACAAATGT	0.0937 ± 0.0053
CAGCAAGG	0.0184 ± 0.0096
GAGGAAGA	-0.0625 ± 0.058
GTTCCATA	-0.232 ± 0.039
ATACTAGA	-0.222 ± 0.11
TTCCAAAA	-0.248 ± 0.0056
CGCGGGTA	0.188 ± 0.025
AACGACTG	0.155 ± 0.022
AGCTGCAT	-0.228 ± 0.0081
CACCTACG	0.373 ± 0.0055
AAATTTCC	-0.135 ± 0.047
AGTAGGAT	-0.131 ± 0.024
ATGAGTTA	-0.0921 ± 0.15
CGAAAGCA	-0.0577 ± 0.061
GACTTCTC	0.163 ± 0.07
CATTGTCA	0.241 ± 0.051

Sequence	PBM E-score of 8-mer
ATAGGGTC	-0.364 ± 0.013
AGGTAGAC	-0.172 ± 0.046
CCAACCCC	-0.0509 ± 0.025
ACCATTAC	0.034 ± 0.032
CAACGTGG	0.0121 ± 0.0092
TGCACCCA	-0.00634 ± 0.056
ATTCACTA	0.0946 ± 0.053
GAGCGGAC	-0.31 ± 0.035
TATATCGA	0.0169 ± 0.0051
CTCGCGTA	0.152 ± 0.079
GATGTGGC	0.117 ± 0.068
GTGTACCA	0.0514 ± 0.027
CCAGGACC	-0.192 ± 0.12
CGTAAGAC	-0.272 ± 0.02
GCGTCCCA	-0.0882 ± 0.007
AAAGCCCT	-0.241 ± 0.028
TAGTATAA	0.0568 ± 0.034
ATCTGGGG	-0.0234 ± 0.03
TGAAACAA	0.0829 ± 0.046
TACGCAGA	-0.00736 ± 0.075
AACCTCCG	0.0095 ± 0.07
CGAGGCCC	-0.215 ± 0.083

Sequence	PBM E-score of 8-mer
GGACAACC	-0.108 ± 0.014
ATCCATGC	-0.0894 ± 0.017
CCAACGTA	-0.159 ± 0.018
CCCTGAGA	-0.19 ± 0.036
ACTGTGCC	-0.00825 ± 0.032
AAGATCCG	-0.156 ± 0.012
GGTTTAGA	-0.183 ± 0.04
CTAACGAC	0.11 ± 0.04
CGCTAAGC	0.106 ± 0.008
AGGACTGA	0.0358 ± 0.0096
AGTCATTA	0.0628 ± 0.02
ACAGAGAC	-0.0676 ± 0.02
ACACTCGC	0.329 ± 0.0045
CGGTGGTA	-0.00129 ± 0.12
GTAGGTCA	-0.0957 ± 0.058
GAGTTGGA	-0.0967 ± 0.023
GACATCCA	8e-05 ± 0.027
GCCAATCA	-0.107 ± 0.03
GAGGCAGC	-0.122 ± 0.061
ACCTGCAC	0.135 ± 0.035
CATATCGC	0.145 ± 0.013
GGGGGAAC	-0.0949 ± 0.015

Sequence	PBM E-score of 8-mer
GAAATTGC	-0.1 ± 0.053
GGTTACAC	0.241 ± 0.026
AAACCACG	0.0305 ± 0.046
CCCGAGAC	-0.125 ± 0.03
ATTTGACG	0.156 ± 0.012
CCTCCCTC	-0.165 ± 0.013
GCAACTCC	0.234 ± 0.093
ATCAGATG	-0.000695 ± 0.0056
GAACCCAA	-0.0429 ± 0.035
GGATCTCA	-0.049 ± 0.0039
CGTGATAC	0.101 ± 0.03
AATGCGGC	0.0415 ± 0.0011
GTATGGGA	-0.202 ± 0.045
ATTGTGCC	-0.00556 ± 0.011
CAAAGTCG	-0.141 ± 0.029
AGTGGTAG	-0.0036 ± 0.015
GCGCGAAC	0.439 ± 0.018
ATGGTAGG	0.0199 ± 0.035
CAGTACGA	-0.183 ± 0.0036
CTAGATTA	-0.0995 ± 0.076
